# The supplement of paper PMC12217912
# This is one part of the list. The full chains were built here from the parent and the listed change. Values near 0.05 are background.
# B1: TEV protease; numbered along this chain (parent)
# chain: MGESLFKGPRDYNPISSSICHLTNESDGHTTSLYGIGFGPFIITNKHLFRRNNGTLVVQSLHGVFKVKDTTTLQQHLVDGRDMIIIRMPKDFPPFPQKLKFREPQREERICLVTTNFQTKSMSSMVSDTSCTFPSGDGIFWKHWIQTKDGQCGSPLVSTRDGFIVGIHSASNFTNTNNYFTSVPKNFMELLTNQEAQQWVSGWRLNADSVLWGGHKVFMVKPEEPFQPVKEATQL
# Variants of: B1
# Assay: raw area under fraction-flipped curve 0-4 h after induction (AUC4h, not background-subtracted), DNA-recorder readout of cleavage of the substrate (dimensionless); higher = more cleavage of the substrate by the protease variant
# Conditions: temperature: 34 °C; time window: 0-4 h after rhamnose induction
# Procedure: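 In vivo DNA recorder in E. coli TOP10(DE3) ΔrhaA at 34 °C. Each TEVp single-site mutant (parent TEVp 0) is paired with a single-site variant of the 7-mer TEVs (canonical ENLYFQ|S). The substrate sits between flexible linkers in a Bxb1-sfGFP-TEVs-SsrA fusion, so cleavage stabilises Bxb1 and speeds flipping of a recombination array, read by NGS. The value is the raw area under the fraction-flipped curve over 0-4 h after rhamnose induction (AUC4h), with ≥20 reads per time point. It is not background-subtracted; inactive controls average about 0.047.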
# 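Further: Bxb1 expression induced with 0.2% (w/v) L-rhamnose at OD600 near 0.5, cultures sampled hourly, flipped fraction per protease–substrate barcode pair counted by paired-end Illumina sequencing.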
Variant,area with substrate ENLYDQS,area with substrate ENLYEQS,area with substrate ENLYHQS,area with substrate ENLYIQS,area with substrate ENLYNQS,area with substrate ENLYRQS,area with substrate ENLYGQS,area with substrate ENLYKQS,area with substrate ENLYPQS,area with substrate ENLYQQS,area with substrate ENLYSQS,area with substrate ENLYTQS,area with substrate ENLYWQS,area with substrate ENLYYQS,area with substrate ENLYMQS,area with substrate ENLYLQS,area with substrate ENLYVQS
K90F,0.0581,0.0666,0.0728,0.132,0.0589,0.0587,,,,,,,,,,,
F65R,0.0553,0.147,,0.0816,0.0903,,0.0724,0.0598,0.0799,0.0602,0.0728,0.0681,0.0636,0.0691,,,
G166Q,0.044,0.0505,0.051,0.0529,0.0645,0.0519,0.0501,0.0509,,0.0482,,,0.0542,0.0479,0.0519,,
G166T,0.0503,0.0522,0.0534,,0.0728,0.0552,0.0352,0.0557,0.0497,0.0614,0.0421,0.0403,0.0515,0.0611,0.045,0.0556,0.0575
F41N,0.0491,0.096,0.0567,,0.0786,0.0474,,0.0752,,,,0.0676,0.0617,,0.0749,0.0336,
V165D,0.0613,0.0687,0.051,0.0558,0.0546,0.0379,0.034,0.0531,0.0664,0.0668,0.0655,0.0395,0.0569,,0.0442,,0.053
G213S,0.0804,0.0625,,,0.0601,0.0663,0.0685,0.0747,,0.0535,0.0638,0.0584,0.0659,,0.0629,0.0671,
G213K,0.054,0.0536,0.061,0.0888,0.0595,0.06,0.0558,0.0465,0.0744,0.0739,0.0748,0.0547,0.0562,0.0657,0.041,,0.0683
S18V,0.0522,0.0654,0.0636,0.107,0.0627,0.0638,0.0605,0.0618,0.0735,0.0738,0.0744,0.0866,0.0925,0.0719,0.092,,0.128
S18Y,0.0716,0.0582,0.0618,0.129,0.0561,,0.0634,0.0591,,0.0565,0.0595,,0.0669,0.0597,0.0781,,0.0852
G28H,0.051,0.0654,0.0648,0.0902,0.0674,0.076,,0.0669,0.0477,,0.0682,0.0673,,0.0673,0.0715,0.0681,0.0733
P134E,0.0923,0.0597,0.0647,0.115,0.05,0.0567,0.0578,0.0609,0.0832,0.0743,0.0757,0.0659,0.0759,,0.0896,,0.113
P134L,0.0489,0.0646,0.0657,0.0945,,,,,0.0572,,,0.0651,0.0653,0.0653,0.066,,
